Test results published in the BET-seq Pho4 binding data (Le et al. 2018).
The other results are listed elsewhere or left out. Values were computed here from the reads of four pooled replicates and scatter widely.

Molecular target: T1, Pho4 (S. cerevisiae) (UniProt P07270)
T1 sequence: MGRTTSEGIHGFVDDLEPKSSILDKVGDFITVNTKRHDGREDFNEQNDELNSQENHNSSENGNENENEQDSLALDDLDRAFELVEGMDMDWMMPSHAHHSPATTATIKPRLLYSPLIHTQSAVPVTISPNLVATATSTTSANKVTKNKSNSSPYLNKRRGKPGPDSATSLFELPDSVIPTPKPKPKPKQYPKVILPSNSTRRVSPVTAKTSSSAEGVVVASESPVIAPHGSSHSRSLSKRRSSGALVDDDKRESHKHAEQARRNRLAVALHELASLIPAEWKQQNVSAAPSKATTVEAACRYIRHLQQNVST
Test: relative binding free energy (BET-seq); higher = weaker binding
Conditions: reference: library average

Sequence	relative binding free energy [kcal/mol]
GAATGCACGTGTGTGG	0.13
ATTAGCACGTGTTTTT	0.04
GTGGGCACGTGGAGAA	-0.08
CTTGTCACGTGTATAT	0.13
TGGTACACGTGTTATT	0.17
TAAGACACGTGAAGGT	0.17
GTGTTCACGTGAGTGT	0.46
TCAGTCACGTGAATGT	0.22
GTACTCACGTGGGAGG	0.15
GGTGCCACGTGGGGAT	-0.15
AATATCACGTGGTATT	-0.01
TTCGGCACGTGAGCTG	0.09
AGGTACACGTGAGTGG	0.3
AACGGCACGTGAGTGT	0.18
GGTCGCACGTGACAGG	0.09
GCGTACACGTGGTTAG	0.09
GTCTGCACGTGGGGTC	-0.16
TAATGCACGTGGTAGG	-0.07
AGTCTCACGTGGTTGG	0.18
AGGTCCACGTGATGGA	0.17
CGTAGCACGTGGATGA	0
AGTGGCACGTGAATGT	0.09
TGGGCCACGTGGTAAT	0
AGCCGCACGTGTTTGG	0.03
CGTGGCACGTGTAATA	0.03

Sequence	relative binding free energy [kcal/mol]
TGGTGCACGTGGCTCG	-0.09
AGGTGCACGTGTTCAG	-0.03
TCGTCCACGTGGGGGG	-0.15
TTGTACACGTGATGTG	0.23
TCTAGCACGTGTTTGT	-0.02
CGAGGCACGTGGGTTG	-0.28
AGATTCACGTGTTGTT	0.15
TTTTGCACGTGCTGTA	-0.14
TTTTCCACGTGTTTGG	0.13
TAATACACGTGGGGTA	-0.1
TCGGGCACGTGGGGGT	-0.16
ATTGCCACGTGAATTG	0.26
TGATGCACGTGGGCGT	-0.11
CCTTGCACGTGTGTTG	0.01
GTCGGCACGTGTTGAG	0.08
TATATCACGTGTGATA	0.24
TTTGCCACGTGGTTCT	-0.1
GTGTGCACGTGCCAGT	-0.07
TAATTCACGTGTTTTG	0.27
AGAGTCACGTGTCTGG	0.19
TTTAACACGTGGTTTA	-0.07
ATGATCACGTGTTGTA	0.11
GGGTGCACGTGTCACG	-0.06
GGCAACACGTGTTGGG	0.06
TTACTCACGTGGGGAG	-0.02

Sequence	relative binding free energy [kcal/mol]
ATGGTCACGTGTAGAC	0.15
TGGGTCACGTGACATA	0.19
TTGCTCACGTGCATGT	0.12
GGAGGCACGTGGGTTT	-0.13
GTAGGCACGTGGGAAC	-0.06
TGTCACACGTGTTGGA	0.12
TTCGGCACGTGGAGAG	0.01
TAAGACACGTGGTTTA	-0.04
GATTGCACGTGCTGTA	0.07
AGGGTCACGTGTGAGA	0.24
CGGGTCACGTGCGTAG	0.19
ATGGCCACGTGGGAAT	-0.05
GGTATCACGTGGTACG	0.1
TCTAGCACGTGGAGGG	-0.04
TCAAGCACGTGATGGA	0.05
AGGTTCACGTGGGAGG	0.19
TAGGGCACGTGTGTTT	-0.01
GGGTTCACGTGGTGTG	0.28
GGGAACACGTGTATGA	0.07
GGTTGCACGTGGGGTA	-0.01
TGGAGCACGTGACTGT	-0.02
TTTTTCACGTGGCTGT	0.17
TGTGTCACGTGGGGCT	0.07
GGGCCCACGTGGCGGT	-0.11
AGAATCACGTGTGTAA	0.29

Sequence	relative binding free energy [kcal/mol]
AATGCCACGTGGGTGA	-0.27
TTGTACACGTGGGACT	0.07
ATTTACACGTGCATGT	0.17
GGGGACACGTGATAAG	0.24
TCGCGCACGTGGGGTT	-0.26
GCAAGCACGTGTGTGG	0
GTGAACACGTGTTGTT	0.03
GGTGGCACGTGATAAT	0.21
TTGTGCACGTGTTGGA	0.09
TTGTTCACGTGTTAGA	0.34
AGGCACACGTGACGGT	0.23
TGGGGCACGTGGTGCG	-0.17
TCTTACACGTGATGGG	0.27
GGTGACACGTGGATGC	0.08
TGTGCCACGTGTCGAG	-0.01
GGGAGCACGTGAGGGC	0.16
AGGATCACGTGGAAAG	0.13
ATTAGCACGTGGAATA	0.07
ACGTTCACGTGGTTTA	0.11
AGCGGCACGTGTCGGG	-0.05
ACGGGCACGTGTTTTG	0.02
AGTTTCACGTGTTCTG	0.36
CGTGGCACGTGTGTCT	-0.09
TGTCGCACGTGAGGTC	0.06
GGTGTCACGTGGCATG	0.07

Sequence	relative binding free energy [kcal/mol]
GGGTGCACGTGCCGTT	-0.06
TCTGGCACGTGGGAGC	-0.19
GATTTCACGTGTCTCG	0.52
CTGATCACGTGGTTAG	0.12
TAGAGCACGTGGAGGG	-0.04
AGCTGCACGTGATGTT	-0.09
AGTACCACGTGAAGTT	0.29
TGAGGCACGTGGTGAT	-0.12
TGTGCCACGTGGTGTG	-0.16
TGGGGCACGTGTACAT	-0.06
TGACGCACGTGGGGCA	-0.32
GCTTTCACGTGTCGTT	0.21
GAGCTCACGTGGTTGG	0.06
GTTGGCACGTGGACGA	-0.06
TTGTCCACGTGAGGAT	0.23
GATGTCACGTGTTTGA	0.22
CCGTTCACGTGTAGGT	0.16
CTTAACACGTGGATGG	0
CGTTTCACGTGAGTTG	0.44
TTTAACACGTGGGATC	0
TAATTCACGTGATTAG	0.24
TGGAGCACGTGGTTGC	-0.05
TCAGTCACGTGGATTT	0.13
TATATCACGTGGGGGA	-0.04
GGTAACACGTGAGCGT	0.06

Sequence	relative binding free energy [kcal/mol]
TGTCCCACGTGTTAGG	-0.03
AAGTTCACGTGGATTA	0.19
TTGTACACGTGGCTGT	-0.03
CGGGCCACGTGGGGAT	-0.13
GGGGGCACGTGCGGCA	-0.28
AGGAACACGTGGGTAG	-0.06
TGGCGCACGTGTGAGT	-0.04
TTTGACACGTGGGCAG	-0.18
TCGATCACGTGGTGTA	0.01
TAAGTCACGTGGGTAA	0.1
GTTAGCACGTGTGATG	0.07
GAGTGCACGTGGGTGC	-0.19
AAGTGCACGTGTTGCT	-0.02
GTGGCCACGTGAGTGT	0.15
GGACACACGTGATGGT	0.29
GGGCACACGTGGGTAT	-0.08
AGGGGCACGTGGATCT	-0.1
TTTCGCACGTGGGCTG	-0.34
GGTACCACGTGTGAGT	-0.04
ATGGCCACGTGTTGGA	-0.09
CGTGGCACGTGGATAT	-0.18
